{
  "source": "PubChem BioAssay AID686978",
  "about": "(National Center for Advancing Translational Sciences (NCATS), 2013)",
  "note": "Where “and” joins values, the source holds several entries; their conditions need not be identical. Identical values can stand only once. The campaign covered roughly 420,000 compounds. About 64,000 (15%) were called active. Inconclusive results, whose numbers are uncertain, are shown with a selection of clear calls. Calls follow the shape of the dose curve; as a rule, active = well fitted inhibition curve with a large enough effect; inconclusive = small, poorly fitted or top-dose-only effect; inactive = flat fitted curve, though single readings scatter. No potency is given beside an inconclusive call; the fits are too rough.",
  "data": [
    {"experiment": "qHTS for Inhibitors of human tyrosyl-DNA phosphodiesterase 1 (TDP1): qHTS in cells in absence of CPT; also: nearly all actives have a fitted effect of over 55% in size; also: potency is read from the fitted curve at half-maximal effect; tags tell the direction and shape of the fitted curve; as to activity change, negative = growth inhibition: % is scaled to controls: 0 for no effect and ±100 for the full control effect", "details": "DT40 Tdp1-/- hTDP1 cells, no CPT, ATP luminescence, 48 h; activity change, negative = growth inhibition: at 46.2 µM (top of the series) unless noted", "how_it_was_run": "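Seeded 400 DT40-hTDP1 cells/well (vehicle DMSO, no 20 nM CPT); pinned compounds; ≥48 hr at 37 °C; CellTiter-Glo luminescence as viability measure.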", "values": [
      {"compound": "Cc1nc2ccccc2n1CC(=O)NC(C)C1CC2CCC1C2", "note": "(centres undefined)", "Potency": "active: 0.92 µM"},
      {"compound": "CCCn1c(CNc2ccc(Br)cc2)nc2ccccc21", "Potency": "inconclusive [inhibitor, partial curve, poor fit]"},
      {"compound": "O=C(CSc1nnc(CNC(=O)c2ccc(F)cc2)o1)Nc1ccc2c(c1)OCO2", "Potency": "inactive"},
      {"compound": "CCCN(C(=O)c1cccc(S(=O)(=O)N2CCN(Cc3ccccc3)CC2)c1)C1CCS(=O)(=O)C1", "note": "(centres undefined)", "Potency": "inconclusive [inhibitor, single point]"},
      {"compound": "CCc1ccc(C(C)NC(=O)Cn2cnc3c(=O)n(C)c(=O)n(C)c32)cc1", "note": "(centres undefined)", "Potency": "inconclusive [inhibitor, single point]"},
      {"compound": "Cc1[nH]n(-c2ccccc2)c(=O)c1N=Nc1ccc2c(c1)OCCO2", "Potency": "inconclusive [inhibitor, single point]"},
      {"compound": "CC1CCc2c(sc(NC(=O)c3ccc(N4C(=O)CCC4=O)cc3)c2C(N)=O)C1", "note": "(centres undefined)", "Potency": "inactive"},
      {"compound": "COc1ccc(Cl)cc1C(=O)NCC(C)C", "Potency": "inactive"},
      {"compound": "CCCc1ncc(C(O)(c2ccccc2)c2ccccc2)n1C", "Potency": "inconclusive [inhibitor, single point]"},
      {"compound": "O=C(NC1CCCCC1)C(c1ccc(F)cc1)N(CCN1CCOCC1)C(=O)c1ccc(-c2ccccc2)[nH]1", "note": "(centres undefined)", "Potency": "inactive"},
      {"compound": "COc1ccc(C(CNC(=O)COc2ccc(F)cc2Br)N2CCCC2)cc1", "note": "(centres undefined)", "Potency": "inconclusive [inhibitor, single point]"},
      {"compound": "CN1C(=O)c2cccc3c(S(=O)(=O)NCc4ccco4)ccc1c23", "Potency": "inconclusive [inhibitor, single point]"},
      {"compound": "COc1ccccc1CNC(=O)c1ccc(-c2nc(CS(=O)c3ccccc3)c(C)o2)cc1", "note": "(centres undefined)", "Potency": "inconclusive [inhibitor, partial curve]"},
      {"compound": "Cc1ccc(OCCCC(=O)N(C)CC(=O)Nc2c(C)cccc2C)cc1", "Potency": "inconclusive [inhibitor, single point]"},
      {"compound": "CCCCn1cc(S(=O)(=O)c2ccc(F)cc2)c(=O)c2ccccc21", "Potency": "inconclusive [inhibitor, single point]"},
      {"compound": "COc1cccc(C(=O)NC(=S)N2CCN(c3ccc(C(F)(F)F)cc3[N+](=O)[O-])CC2)c1", "Potency": "inconclusive [inhibitor, partial curve, poor fit]"},
      {"compound": "CCc1cc2c(cc3c(=O)n(CC(=O)N4CCCCC4)ncn32)s1", "Potency": "inconclusive [inhibitor, single point]"},
      {"compound": "CCOc1ccc2nc(N3CCCC(C(=O)Nc4cccc(Cl)c4C)C3)sc2c1", "note": "(centres undefined)", "Potency": "inconclusive [inhibitor, partial curve]"},
      {"compound": "Cc1ccc2nc(C(F)OC(F)(F)F)[nH]c2c1", "note": "(centres undefined)", "Potency": "inconclusive [inhibitor, single point]"},
      {"compound": "COc1ccc(C(=O)Nc2ccccc2C(=O)N/N=C/c2ccco2)cc1", "Potency": "inconclusive [inhibitor, single point]"},
      {"compound": "Oc1ccc(/C=N/n2c(-c3ccccc3)n[nH]c2=S)cc1", "Potency": "inconclusive [inhibitor, single point]"},
      {"compound": "Cc1noc(C)c1S(=O)(=O)N1CCN(c2ccccc2Cl)CC1", "activity change, negative = growth inhibition": "inconclusive: -34.6% [inhibitor]"},
      {"compound": "CC(O)[C@H]1CNCCN1CC1(c2ccccc2)CC1", "note": "(some centres undefined)", "Potency": "inactive"},
      {"compound": "COc1ccc(Cn2c(SCC(N)=O)nc3c(sc4ccccc43)c2=O)cc1", "activity change, negative = growth inhibition": "inconclusive: -30.5% [inhibitor]"},
      {"compound": "COc1ccc(CCN=C(C)C2=C(O)C(c3ccccc3)OC2=O)cc1OC", "note": "(centres undefined)", "Potency": "inconclusive [inhibitor, single point]"},
      {"compound": "C[C@H](NC(=O)c1ccccc1)C(=O)Nc1nc(-c2ccccn2)cs1", "Potency": "inconclusive [inhibitor, single point]"},
      {"compound": "COC(=O)c1cc(C)sc1NC(=O)C1C2C=CC(CC2)C1C(=O)O", "note": "(centres undefined)", "Potency": "inactive"},
      {"compound": "Cc1ccc(C)c(S(=O)(=O)NC(C)C(=O)Nc2ccc(-c3nc4ccccc4s3)cc2)c1", "note": "(centres undefined)", "Potency": "inconclusive [inhibitor, single point]"},
      {"compound": "Cc1ccc(O)c(CNc2cccc3cccnc23)c1", "Potency": "inconclusive [inhibitor, single point]"},
      {"compound": "CCOc1ccc(N2C(=O)N(Cc3c(F)cccc3Cl)c3ccccc3S2(=O)=O)cc1", "Potency": "inconclusive [inhibitor, single point]"},
      {"compound": "O=C(CCN=C1NS(=O)(=O)c2ccccc21)OCc1cccc(Cl)c1", "Potency": "inconclusive [inhibitor, single point]"},
      {"compound": "Cc1ccc2[nH]c3c(=O)n(CC(=O)N4CCN(c5cccc(C(F)(F)F)c5)CC4)ncc3c2c1", "Potency": "inactive"},
      {"compound": "COCCn1c(SCc2cnc(-c3ccccc3)s2)nnc1-c1ccncc1", "Potency": "inconclusive [inhibitor, single point]"},
      {"compound": "COc1ccc(CCNC(=O)C2CCN(C(=O)c3ccc(Cl)cc3)CC2)cc1", "Potency": "inactive"},
      {"compound": "C/C(=N\\NC(=O)c1ccncc1)c1ccc(N2CCOCC2)cc1", "Potency": "inactive"},
      {"compound": "Cc1ccc(C(=O)CSc2ccc(-c3cccnc3)nn2)cc1", "Potency": "inconclusive [inhibitor, partial curve, poor fit]"},
      {"compound": "CS(=O)(=O)N1CCN(C(=O)c2cc(-c3ccncc3)nc3ccc(Cl)cc23)CC1", "Potency": "inconclusive [inhibitor, partial curve]"},
      {"compound": "COCCCNC(=O)Cc1c(C)c2c(cc(C)c3c(C)c(C)oc32)oc1=O", "Potency": "active: 13 µM"},
      {"compound": "CN(C)c1ccc(CN(CC2CCCO2)C(=O)c2ccc(Br)cc2)cc1", "note": "(centres undefined)", "Potency": "inactive"},
      {"compound": "Clc1ccc2c(c1)CNc1c(ncnc1N1CCOCC1)O2", "Potency": "inconclusive [inhibitor, partial curve]"},
      {"compound": "Cc1ccc(-n2c(=O)c3ccc(C(=O)NCc4ccccc4Cl)cc3n(CC(=O)Nc3cccc(F)c3)c2=O)cc1", "Potency": "inconclusive [inhibitor, single point]"},
      {"compound": "CCn1c(O)c(/C=C2\\C=Nc3ccccc32)sc1=Nc1ccc(C)cc1", "Potency": "inconclusive [inhibitor, partial curve]"},
      {"compound": "O=C1CC(N(CCc2ccccc2)C(=S)Nc2ccccc2)C(=O)N1c1ccc(Br)cc1", "note": "(centres undefined)", "Potency": "active: 18.4 µM"},
      {"compound": "CCOC(=O)C(=N/O)/C(C)=N/NC(=O)C(=O)Nc1ccc(Cl)cc1", "Potency": "active: 2.06 µM"},
      {"compound": "CN(c1ccc(C(=O)N2CCOCC2)cc1[N+](=O)[O-])C1CCCCC1", "Potency": "inconclusive [inhibitor, single point]"},
      {"compound": "Cc1oc(-c2ccccc2Cl)nc1CS(=O)CC(=O)NCCc1ccccc1", "note": "(centres undefined)", "Potency": "inactive"},
      {"compound": "CCCCNc1c(-c2ccc(OC)c(SC3CCCCC3)c2)nc2ccc(C)cn12", "Potency": "active: 8.33 µM and active: 8.2 µM"},
      {"compound": "COc1cccc(CNC(=O)CN2C(=O)CSc3c2c(C)nn3-c2ccccc2)c1", "Potency": "inactive"},
      {"compound": "Cc1cccc(NC(=O)c2ccc(N3CCCCC3)c([N+](=O)[O-])c2)n1", "Potency": "active: 13 µM"},
      {"compound": "Cc1ccc(C(=O)NNC(=O)OC(C)(C)C)c(Cl)c1", "Potency": "inactive"},
      {"compound": "Cc1cc(CNC(=O)Cn2nc(C)c([N+](=O)[O-])c2C)c2ccccc2n1", "Potency": "inconclusive [inhibitor, single point]"},
      {"compound": "COc1cccc(-c2ccc(NC(=O)C3CCCN(Cc4nccn4C)C3)cc2)c1", "note": "(centres undefined)", "Potency": "inconclusive [inhibitor, single point]"},
      {"compound": "Cc1ccc(CN(C)C(=O)c2cccc(S(=O)(=O)N3CCN(Cc4ccccc4)CC3)c2)o1", "Potency": "inconclusive [inhibitor, single point]"},
      {"compound": "Clc1ccc(C2Nc3ccccc3-n3cccc32)cc1", "note": "(centres undefined)", "Potency": "inconclusive [inhibitor, single point]"},
      {"compound": "COCCn1c(=O)c(-c2ccc(Cl)cc2)nc2cnc(Oc3ccccc3)nc21", "Potency": "inactive"},
      {"compound": "CNc1cnn(-c2ccccc2)c(=O)c1Cl", "Potency": "inconclusive [inhibitor, single point]"},
      {"compound": "CCCCC(NC(C)=O)c1nc2ccccc2n1CCC", "note": "(centres undefined)", "Potency": "active: 5.8 µM"},
      {"compound": "CN(C)c1nc(Oc2ccc(C(=O)OCC(=O)Nc3ccccc3)cc2)nc(N(C)C)n1", "Potency": "inconclusive [inhibitor, partial curve, poor fit]"},
      {"compound": "COc1ccccc1NS(=O)(=O)c1cc([N+](=O)[O-])ccc1N/N=C/c1c(C)[nH]c2ccccc12", "Potency": "inconclusive [inhibitor, single point]"},
      {"compound": "CCN(CC)S(=O)(=O)c1ccc(S(=O)(=O)Nc2ccc(C(=O)N3CCCC3)cc2)cc1", "Potency": "inactive"},
      {"compound": "COc1cc(NC(=O)COc2cc(C)cc3oc(=O)c(C)c(C)c23)cc(OC)c1OC", "Potency": "inactive"},
      {"compound": "CCOC(=O)C1CCCN(C(=O)C2CCN(C(=O)Nc3ccccc3)CC2)C1", "note": "(centres undefined)", "Potency": "inactive"},
      {"compound": "COCCCn1cc(CN2CC(N3CCCCC3)CS2(=O)=O)nn1", "note": "(centres undefined)", "Potency": "inactive"},
      {"compound": "O=C(CN(c1ccc(F)cc1)S(=O)(=O)c1ccc2c(c1)OCCO2)Nc1ccc2c(c1)OCO2", "Potency": "inconclusive [inhibitor, single point]"},
      {"compound": "CC(C)(C)c1ccc(C(=O)Nc2cccc([N+](=O)[O-])c2)cc1", "Potency": "active: 18.4 µM"},
      {"compound": "Cc1cc2c(cc1C)NC(CC(=O)Nc1ccccc1SC(F)(F)F)C(=O)N2", "note": "(centres undefined)", "Potency": "active: 16.4 µM"},
      {"compound": "CN(C(=O)c1ccc(NC(=O)Cc2ccc(NC(=O)C3CCCN(C(=O)C4CC4)C3)cc2)cc1)C1CC1", "note": "(centres undefined)", "Potency": "inconclusive [inhibitor, single point]"},
      {"compound": "O=C(Nc1ccccc1C(=O)Nc1ccc(Br)cn1)c1cccc([N+](=O)[O-])c1", "Potency": "inconclusive [inhibitor, partial curve, poor fit]"},
      {"compound": "C[C@H]1CN([C@@H](C)CO)C(=O)CCCn2nncc2CO[C@@H]1CN(C)S(=O)(=O)c1ccc2ccccc2c1", "Potency": "inactive"}
    ]}
  ]
}
